From paper PMC7507369 come the findings set out here.

By UniProt entry, the sequences of proteins in these tests, tags left out. Residues count along the entry.
UniProt O15455, residues 24-904: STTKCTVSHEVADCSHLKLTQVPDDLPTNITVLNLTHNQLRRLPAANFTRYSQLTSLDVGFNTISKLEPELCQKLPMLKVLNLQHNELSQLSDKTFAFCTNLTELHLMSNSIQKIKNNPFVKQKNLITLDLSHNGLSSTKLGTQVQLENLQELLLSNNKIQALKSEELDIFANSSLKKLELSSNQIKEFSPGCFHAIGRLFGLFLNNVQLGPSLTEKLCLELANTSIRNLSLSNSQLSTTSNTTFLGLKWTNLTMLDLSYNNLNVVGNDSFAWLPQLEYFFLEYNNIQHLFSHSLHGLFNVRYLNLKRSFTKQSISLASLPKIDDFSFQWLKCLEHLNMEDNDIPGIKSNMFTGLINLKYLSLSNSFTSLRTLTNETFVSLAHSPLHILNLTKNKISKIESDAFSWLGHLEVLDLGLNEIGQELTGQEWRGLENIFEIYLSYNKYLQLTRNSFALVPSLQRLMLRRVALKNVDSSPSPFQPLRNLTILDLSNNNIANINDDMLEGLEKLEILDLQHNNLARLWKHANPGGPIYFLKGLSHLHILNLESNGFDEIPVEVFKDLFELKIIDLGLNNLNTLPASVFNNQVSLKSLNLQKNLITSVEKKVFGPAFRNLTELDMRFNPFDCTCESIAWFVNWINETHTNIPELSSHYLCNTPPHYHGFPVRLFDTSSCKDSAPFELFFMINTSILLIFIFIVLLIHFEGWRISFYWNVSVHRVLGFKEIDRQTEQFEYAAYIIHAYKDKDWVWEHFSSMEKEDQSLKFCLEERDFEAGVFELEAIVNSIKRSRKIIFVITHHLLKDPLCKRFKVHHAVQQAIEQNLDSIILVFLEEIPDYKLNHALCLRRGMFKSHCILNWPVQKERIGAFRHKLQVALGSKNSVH

Results are given in words; binding and its absence hold for the method and conditions named. Binding seen in cells or lysates may run through a third protein. Some results given as binding are weak or reduced against the parent protein; the word gives no strength. Sequences can lack the tags named with a protein.

In experiment [1] the target is T1, GST-IRGM (human) (UniProt A1A4Y4).
T1 sequence: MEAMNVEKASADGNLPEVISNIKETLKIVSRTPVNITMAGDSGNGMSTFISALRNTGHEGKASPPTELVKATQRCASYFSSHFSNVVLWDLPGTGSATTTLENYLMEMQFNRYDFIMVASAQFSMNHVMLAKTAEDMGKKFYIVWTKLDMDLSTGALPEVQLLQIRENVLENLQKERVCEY
Briefly: pull-down; GST or GST-IRGM on Glutathione Sepharose beads incubated with in vitro translated [35S]-labeled Myc-tagged proteins; NETN-E buffer (50 mM Tris pH 8.0, 100 mM NaCl, 6 mM EDTA, 6 mM EGTA, 0.5% NP-40, 1 mM DTT), 2 h at 4°C; autoradiography; only the target purified.

Experiment [2] has as its target HA-p62 (UniProt Q13501). Briefly: co-IP; HA-p62 and Flag-tagged RIG-I, TLR3 or cGAS in the absence and presence of GFP or GFP-IRGM, HEK293T cell lysates; p62 immunoprecipitated.
The target of experiment [3] is Flag-cGAS (UniProt Q8N884). Briefly: co-IP; GFP-IRGM and Flag-tagged proteins overexpressed in HEK293T, cell lysates; NP-40 lysis buffer, protein G dynabeads, 4°C; reverse co-IPs too; for cGAS, RIG-I and TLR3 also in control siRNA or p62 siRNA transfected cells.
Experiment [4] addresses Flag-TLR3 (UniProt O15455). The experiment is described as above.
Experiment [5] addresses T2, Flag-RIG-I (UniProt O95786).
T2 sequence: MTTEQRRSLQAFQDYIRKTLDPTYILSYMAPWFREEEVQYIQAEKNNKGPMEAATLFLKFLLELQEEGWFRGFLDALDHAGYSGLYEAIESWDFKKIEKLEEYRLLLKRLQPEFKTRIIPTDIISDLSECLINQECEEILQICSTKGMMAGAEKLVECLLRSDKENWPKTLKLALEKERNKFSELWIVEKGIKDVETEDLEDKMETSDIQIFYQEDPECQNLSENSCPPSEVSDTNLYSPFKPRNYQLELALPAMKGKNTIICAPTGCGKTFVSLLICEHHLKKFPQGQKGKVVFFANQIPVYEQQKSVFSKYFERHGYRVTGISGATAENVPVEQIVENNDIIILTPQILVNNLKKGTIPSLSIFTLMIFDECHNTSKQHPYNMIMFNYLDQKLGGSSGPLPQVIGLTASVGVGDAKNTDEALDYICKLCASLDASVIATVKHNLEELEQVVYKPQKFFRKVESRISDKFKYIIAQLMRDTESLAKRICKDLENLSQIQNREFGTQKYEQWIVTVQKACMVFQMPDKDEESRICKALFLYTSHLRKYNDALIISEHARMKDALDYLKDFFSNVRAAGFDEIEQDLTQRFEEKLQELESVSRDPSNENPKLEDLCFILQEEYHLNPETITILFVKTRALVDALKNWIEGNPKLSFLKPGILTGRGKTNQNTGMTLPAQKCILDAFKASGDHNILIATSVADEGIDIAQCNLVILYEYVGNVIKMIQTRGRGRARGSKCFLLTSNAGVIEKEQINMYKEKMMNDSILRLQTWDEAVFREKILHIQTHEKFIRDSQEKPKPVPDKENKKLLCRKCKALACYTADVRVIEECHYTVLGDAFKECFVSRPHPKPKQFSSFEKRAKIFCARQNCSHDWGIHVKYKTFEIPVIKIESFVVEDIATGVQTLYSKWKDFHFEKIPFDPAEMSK
Described as above.

In experiment [6] the target is HA-p62, Q13501. Briefly: co-IP; HA-p62 and Flag-tagged RIG-I, TLR3 or cGAS in the absence and presence of GFP or GFP-IRGM, HEK293T cell lysates; p62 immunoprecipitated. The conditions noted are these: remark: other sources report otherwise.

B1: Myc-RIG-I, in vitro translated (protein, UniProt O95786 1-925)
chain: T2 sequence
modifications: [35S]-labeled
Consider B1, for which the binding result in experiment [1] is listed as “binds weakly”.

B2: GFP-IRGM (protein, UniProt A1A4Y4 1-181)
chain: T1 sequence
Turning to B2, the binding result in experiment [2], in experiment [3], in experiment [4] and in experiment [5] was “binds” in each case.

B3: Flag-cGAS, Q8N884 1-522 (protein)
chain: MQPWHGKAMQRASEAGATAPKASARNARGAPMDPTESPAAPEAALPKAGKFGPARKSGSRQKKSAPDTQERPPVRATGARAKKAPQRAQDTQPSDATSAPGAEGLEPPAAREPALSRAGSCRQRGARCSTKPRPPPGPWDVPSPGLPVSAPILVRRDAAPGASKLRAVLEKLKLSRDDISTAAGMVKGVVDHLLLRLKCDSAFRGVGLLNTGSYYEHVKISAPNEFDVMFKLEVPRIQLEEYSNTRAYYFVKFKRNPKENPLSQFLEGEILSASKMLSKFRKIIKEEINDIKDTDVIMKRKRGGSPAVTLLISEKISVDITLALESKSSWPASTQEGLRIQNWLSAKVRKQLRLKPFYLVPKHAKEGNGFQEETWRLSFSHIEKEILNNHGKSKTCCENKEEKCCRKDCLKLMKYLLEQLKERFKDKKHLDKFSSYHVKTAFFHVCTQNPQDSQWDRKDLGLCFDNCVTYFLQCLRTEKLENYFIPEFNLFSSNLIDKRSKEFLTKQIEYERNNEFPVFDEF
Regarding B3, the binding entry in experiment [6] was “binds”.
